Laboratory results: the supplement of paper PMC12645437, “Orthogonal IMiD-Degron Pairs Induce Selective Protein Degradation in Cells” (ACS Chemical Biology, 2025)
The list shows a part of the results.

What follows are sequences tested against no compound (DMSO) (assay: log2 fold change of degron read counts, EGFP-low vs EGFP+ sorted cells; higher = lower degron-EGFP level without compound (poor expression or instability)). Settings: compound: DMSO control; 18 h.
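Further: jurkat cells carrying a lentiviral library of mutant zinc finger degrons fused to EGFP plus mCherry, mCherry+ cells FACS sorted, degron abundance counted by next-generation sequencing.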

Sequence | log2 fold change of degron read counts
FHCPICGHSFTQKGNLLRHIKL | -1.5
FHCPQCGAQFTQKGNLLRHIKL | -1.85
FACEICGANFTQKGNLLRHIKL | -1.65
FMCEICGAQFTQKGNLLRHIKL | -1.95
FTCPICGRKFTQKGNLLRHIKL | -0.401
FYCNICGAQFTQKGNLLRHIKL | -0.421
LMCPICGFLCTQKGNLLRHIKL | 1.66
FCCEICGASFTQKGNLLRHIKL | -1.45
LECPICGFDCTQKGNLLRHIKL | -0.246
FACPQCGAEFTQKGNLLRHIKL | -2.46
FECNICGAEFTQKGNLLRHIKL | -2.41
LNCNQCGFACTQKGNLLRHIKL | 1.1
FGCPICGRHFTQKGNLLRHIKL | -0.593
FLCNVCGAMFTQKGNLLRHIKL | -0.298
FKCNVCGAVFTQKGNLLRHIKL | -1.28
FLCSVCGHSFTQKGNLLRHIKL | -0.841
FCCPQCGATFTQKGNLLRHIKL | -1.26
FRCPICGAPFTQKGNLLRHIKL | 0.575
FDCPVCGAVFTQKGNLLRHIKL | -0.199
FVCPICGAEFTQKGNLLRHIKL | -0.362
FSCEICGAQFTQKGNLLRHIKL | -1.48
FRCPICGRMFTQKGNLLRHIKL | 0.215
LSCPICGFACTQKGNLLRHIKL | 0.657
FQCEICGRWFTQKGNLLRHIKL | -0.413
LKCPICGFSCTQKGNLLRHIKL | 0.45

Sequence | log2 fold change of degron read counts
FYCPICGRYFTQKGNLLRHIKL | -2.56
FNCEICGAKFTQKGNLLRHIKL | -1.49
LNCPICGFSCTQKGNLLRHIKL | 0.336
FACPICGHWFTQKGNLLRHIKL | 0.6
FMCEICGHPFTQKGNLLRHIKL | -0.354
FQCDICGARFTQKGNLLRHIKL | -2.23
LTCEICGFICTQKGNLLRHIKL | 0.407
FACNQCGRGFTQKGNLLRHIKL | 0.221
FLCPVCGALFTQKGNLLRHIKL | 0.44
FKCPICGHYFTQKGNLLRHIKL | -0.0387
FFCDICGAFFTQKGNLLRHIKL | -0.172
FMCPQCGASFTQKGNLLRHIKL | -1.16
FTCNQCGHRFTQKGNLLRHIKL | 0.217
FACPICGAIFTQKGNLLRHIKL | 0.435
FFCPICGHRFTQKGNLLRHIKL | 0.135
FWCNICGAAFTQKGNLLRHIKL | 0.257
FACNVCGATFTQKGNLLRHIKL | 0.0604
FCCSVCGHRFTQKGNLLRHIKL | 0.334
LICNQCGFYCTQKGNLLRHIKL | 1.29
FMCNQCGHPFTQKGNLLRHIKL | 0.0871
FRCPVCGAIFTQKGNLLRHIKL | 0.511
FECEQCGANFTQKGNLLRHIKL | -2.08
FSCPQCGAMFTQKGNLLRHIKL | -1.11
FQCEVCGADFTQKGNLLRHIKL | -2.33
FVCNQCGRWFTQKGNLLRHIKL | 0.359
